The list shows a part of the results. The list includes weakly bound sequences.
target: T1, MBP-FoxP3dN (UniProt Q99JB6); test: PD-seq (MBP pull-down with sequencing); conditions: 20 mM Tris-HCl pH 7.5, 100 mM NaCl, 1.5 mM MgCl2, 0.4 uM protein, 0.1 uM dsDNA library, 30 min, room temperature, amylose pull-down; high values mean tight binding; double strand, one strand shown
T1 sequence: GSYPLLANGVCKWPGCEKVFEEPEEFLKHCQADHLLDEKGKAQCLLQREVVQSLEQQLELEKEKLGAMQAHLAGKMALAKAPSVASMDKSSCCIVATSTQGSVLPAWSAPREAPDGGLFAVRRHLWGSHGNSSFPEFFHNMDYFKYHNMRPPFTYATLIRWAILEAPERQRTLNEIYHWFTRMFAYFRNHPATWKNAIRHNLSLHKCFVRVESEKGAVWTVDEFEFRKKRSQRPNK

Sequence	binding signal (RPM ratio (pull-down/input))
GATGATTGTTCTCCCAGCTGATGAATTTACGCCCTCGAGTAAACAAATTTTCCTAATCTTTCTGTTCAAGCGCCATCTAC	0.837
GATGATTGTTCTCCCAGCTGATGAATTCCGGTTATCGAGTAAACAAATTTTCCTAATCTTTCTGTTCAAGCGCCATCTAC	0.841
GATGATTGTTCTCCCAGCTGATGAATTATGTGTATCGAGTAAACAAATTTTCCTAATCTTTCTGTTCAAGCGCCATCTAC	5.73
GATGATTGTTCTCCCAGCTGATGAATTACTGCTGTCGAGTAAACAAATTTTCCTAATCTTTCTGTTCAAGCGCCATCTAC	0.446
GATGATTGTTCTCCCAGCTGATGAATTTTTCCGTTCGAGTAAACAAATTTTCCTAATCTTTCTGTTCAAGCGCCATCTAC	0.238
GATGATTGTTCTCCCAGCTGATGAATTTTCCTAGTCGAGTAAACAAATTTTCCTAATCTTTCTGTTCAAGCGCCATCTAC	0.184
GATGATTGTTCTCCCAGCTGATGAATTTAGTCCGTCGAGTAAACAAATTTTCCTAATCTTTCTGTTCAAGCGCCATCTAC	0.396
GATGATTGTTCTCCCAGCTGATGAATTCGACTCATCGAGTAAACAAATTTTCCTAATCTTTCTGTTCAAGCGCCATCTAC	0.569
GATGATTGTTCTCCCAGCTGATGAATTCCACGGGTCGAGTAAACAAATTTTCCTAATCTTTCTGTTCAAGCGCCATCTAC	0.2
GATGATTGTTCTCCCAGCTGATGAATTTAAAGAGTCGAGTAAACAAATTTTCCTAATCTTTCTGTTCAAGCGCCATCTAC	0.238
GATGATTGTTCTCCCAGCTGATGAATTAAACGCTTCGAGTAAACAAATTTTCCTAATCTTTCTGTTCAAGCGCCATCTAC	0.461
GATGATTGTTCTCCCAGCTGATGAATTCGGTTTATCGAGTAAACAAATTTTCCTAATCTTTCTGTTCAAGCGCCATCTAC	2.84
GATGATTGTTCTCCCAGCTGATGAATTAAGCATTTCGAGTAAACAAATTTTCCTAATCTTTCTGTTCAAGCGCCATCTAC	6.1
GATGATTGTTCTCCCAGCTGATGAATTCATGGCCTCGAGTAAACAAATTTTCCTAATCTTTCTGTTCAAGCGCCATCTAC	0.567
GATGATTGTTCTCCCAGCTGATGAATTGCAGTTATCGAGTAAACAAATTTTCCTAATCTTTCTGTTCAAGCGCCATCTAC	1.39
GATGATTGTTCTCCCAGCTGATGAATTATCGGATTCGAGTAAACAAATTTTCCTAATCTTTCTGTTCAAGCGCCATCTAC	0.299
GATGATTGTTCTCCCAGCTGATGAATTTGCTATTTCGAGTAAACAAATTTTCCTAATCTTTCTGTTCAAGCGCCATCTAC	5.54
GATGATTGTTCTCCCAGCTGATGAATTAGCAGCCTCGAGTAAACAAATTTTCCTAATCTTTCTGTTCAAGCGCCATCTAC	0.592
GATGATTGTTCTCCCAGCTGATGAATTCACGTAATCGAGTAAACAAATTTTCCTAATCTTTCTGTTCAAGCGCCATCTAC	0.501
GATGATTGTTCTCCCAGCTGATGAATTGTGGGCATCGAGTAAACAAATTTTCCTAATCTTTCTGTTCAAGCGCCATCTAC	1.1

Sequence	binding signal (RPM ratio (pull-down/input))
GATGATTGTTCTCCCAGCTGATGAATTTGGATCATCGAGTAAACAAATTTTCCTAATCTTTCTGTTCAAGCGCCATCTAC	0.541
GATGATTGTTCTCCCAGCTGATGAATTAAAGACGTCGAGTAAACAAATTTTCCTAATCTTTCTGTTCAAGCGCCATCTAC	0.263
GATGATTGTTCTCCCAGCTGATGAATTGGAGGCATCGAGTAAACAAATTTTCCTAATCTTTCTGTTCAAGCGCCATCTAC	1.07
GATGATTGTTCTCCCAGCTGATGAATTGGTGGGTTCGAGTAAACAAATTTTCCTAATCTTTCTGTTCAAGCGCCATCTAC	0.773
GATGATTGTTCTCCCAGCTGATGAATTATACTAATCGAGTAAACAAATTTTCCTAATCTTTCTGTTCAAGCGCCATCTAC	0.484
GATGATTGTTCTCCCAGCTGATGAATTCCCACCCTCGAGTAAACAAATTTTCCTAATCTTTCTGTTCAAGCGCCATCTAC	0.254
GATGATTGTTCTCCCAGCTGATGAATTGGCACCGTCGAGTAAACAAATTTTCCTAATCTTTCTGTTCAAGCGCCATCTAC	0.334
GATGATTGTTCTCCCAGCTGATGAATTGGTCACTTCGAGTAAACAAATTTTCCTAATCTTTCTGTTCAAGCGCCATCTAC	0.738
GATGATTGTTCTCCCAGCTGATGAATTGCCGGCCTCGAGTAAACAAATTTTCCTAATCTTTCTGTTCAAGCGCCATCTAC	0.572
GATGATTGTTCTCCCAGCTGATGAATTGCGCCTGTCGAGTAAACAAATTTTCCTAATCTTTCTGTTCAAGCGCCATCTAC	6.14
GATGATTGTTCTCCCAGCTGATGAATTCAATGAATCGAGTAAACAAATTTTCCTAATCTTTCTGTTCAAGCGCCATCTAC	0.235
GATGATTGTTCTCCCAGCTGATGAATTCCAGTGTTCGAGTAAACAAATTTTCCTAATCTTTCTGTTCAAGCGCCATCTAC	0.673
GATGATTGTTCTCCCAGCTGATGAATTTGTCTGATCGAGTAAACAAATTTTCCTAATCTTTCTGTTCAAGCGCCATCTAC	1.23
GATGATTGTTCTCCCAGCTGATGAATTTCCCGATTCGAGTAAACAAATTTTCCTAATCTTTCTGTTCAAGCGCCATCTAC	0.191
GATGATTGTTCTCCCAGCTGATGAATTTATAAAGTCGAGTAAACAAATTTTCCTAATCTTTCTGTTCAAGCGCCATCTAC	0.295
GATGATTGTTCTCCCAGCTGATGAATTGGCATTCTCGAGTAAACAAATTTTCCTAATCTTTCTGTTCAAGCGCCATCTAC	3.49
GATGATTGTTCTCCCAGCTGATGAATTACCACACTCGAGTAAACAAATTTTCCTAATCTTTCTGTTCAAGCGCCATCTAC	0.478
GATGATTGTTCTCCCAGCTGATGAATTAACGCTCTCGAGTAAACAAATTTTCCTAATCTTTCTGTTCAAGCGCCATCTAC	0.605
GATGATTGTTCTCCCAGCTGATGAATTACGGCCTTCGAGTAAACAAATTTTCCTAATCTTTCTGTTCAAGCGCCATCTAC	1.8
GATGATTGTTCTCCCAGCTGATGAATTCTCTTCGTCGAGTAAACAAATTTTCCTAATCTTTCTGTTCAAGCGCCATCTAC	0.288
